The experiment has as its system NCI-H1944. As to the kind of experiment: normalised cell viability (NPI; 0 = phenylarsine oxide control, 1 = DMSO control) (fraction of DMSO control); NCI-H1944 is a non-small cell lung cancer line; higher = more viable cells (less compound toxicity). The note with it: 6 days.
[1] abbreviates: glucocorticoid arm: hydrocortisone 2.75 uM co-treatment, compound 1 µM.
Setting [2] is: glucocorticoid arm: hydrocortisone 2.75 uM co-treatment, compound 5 µM.
The mark [3] stands for this setting: glucocorticoid arm: hydrocortisone 2.75 uM pre-treated 2 days and continued, compound 1 µM.
Setting [4] is: glucocorticoid arm: hydrocortisone 2.75 uM pre-treated 2 days and continued, compound 5 µM.
Where [5] appears, read: glucocorticoid arm: vehicle, compound 1 µM.
[6] abbreviates: glucocorticoid arm: vehicle, compound 5 µM.

Counter-ions that a name gives are not always drawn. ± gives the standard deviation of the averaged measurements. In all, about 1,900 compounds were measured (“normalised cell viability (NPI; 0 = phenylarsine oxide control, 1 = DMSO control)”: median about 1, lowest 2% from about 0.039 on). The list shows a part of the results.
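Note: CTB read-out in 384-well plates, mean of triplicate wells, normalised per plate against 1 µM phenylarsine oxide and 0.1% DMSO, compounds added 24 h after seeding.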

Turning to `Clc1ccc2nsnc2c1NC1=NCCN1` [Tizanidine HCl], the normalised cell viability by setting is: under setting [1], 1 ± 0.017; under setting [2], 0.998 ± 0.02; under setting [3], 1 ± 0.028; under setting [4], 1 ± 0.017; under setting [5], 0.9927 ± 0.0023; under setting [6], 1.002 ± 0.0072.

As for `CC(=O)Nc1nnc(S(N)(=O)=O)s1` [Acetazolamide], the normalised cell viability is 1 ± 0.017 under setting [1]; 1 ± 0.017 under setting [2]; 0.999 ± 0.0095 under setting [3]; 0.9895 ± 0.0064 under setting [4]; 0.998 ± 0.0027 under setting [5]; 1 ± 0.011 under setting [6].

Consider `CCCCOc1ccc(C(=O)Nc2ccc(F)cc2F)cc1`, for which the normalised cell viability under setting [1] turned out to be 1.04 ± 0.044; the normalised cell viability under setting [2] was determined as 0.998 ± 0.013; the normalised cell viability under setting [3] was 1.04 ± 0.021; the normalised cell viability under setting [4] came to 1.01 ± 0.022; the normalised cell viability under setting [5] is 1.02 ± 0.015; the normalised cell viability under setting [6] came out at 1.006 ± 0.0069.

`Nc1nc(OCc2cc(Br)cs2)c2[nH]cnc2n1` [Lomeguatrib]: the normalised cell viability runs as follows: under setting [1], 0.984 ± 0.014; under setting [2], 0.9813 ± 0.0015; under setting [3], 0.981 ± 0.02; under setting [4], 0.98 ± 0.018; under setting [5], 0.994 ± 0.004; under setting [6], 1.002 ± 0.0074.

In the case of `NC(N)=N[C@@H](CCC(=O)O)C(=O)O` [alpha-Guanidinoglutaric acid], the normalised cell viability was 1.01 ± 0.01 under setting [1]; 0.983 ± 0.01 under setting [2]; 1.006 ± 0.0063 under setting [3]; 1.01 ± 0.021 under setting [4]; 0.9917 ± 0.0038 under setting [5]; 1.002 ± 0.0072 under setting [6].

Regarding `Cc1ccc(S(=O)(=O)Nc2nc3ccccc3nc2Nc2ccc3nsnc3c2)cc1`, the normalised cell viability by setting is: under setting [1], 1.02 ± 0.02; under setting [2], 1.03 ± 0.037; under setting [3], 1.013 ± 0.0058; under setting [4], 1.01 ± 0.028; under setting [5], 0.998 ± 0.011; under setting [6], 0.9983 ± 0.0021.

Consider `CCOC(=O)C1=C(N)Oc2ccc(Br)cc2C1C(C#N)C(=O)OCC` (configuration not stated), for which the normalised cell viability turned out to be 0.9913 ± 0.0061 under setting [1]; 1.03 ± 0.01 under setting [2]; 0.991 ± 0.024 under setting [3]; 1.02 ± 0.01 under setting [4]; 1.002 ± 0.0068 under setting [5]; 1.003 ± 0.0058 under setting [6].

`c1ccc2c(c1)CC(N1CCN(c3cccc4c3OCCO4)CC1)C2`: the normalised cell viability worked out at 0.988 ± 0.019 under setting [1]; 0.9857 ± 0.0084 under setting [2]; 0.995 ± 0.015 under setting [3]; 1.03 ± 0.081 under setting [4]; 1.003 ± 0.0058 under setting [5]; 1.02 ± 0.011 under setting [6].

Regarding `CCN(CC)CCNC(=O)c1ccc(N)cc1` [Procainamide hydrochloride], the normalised cell viability is, setting by setting: under setting [1], 0.9837 ± 0.0032; under setting [2], 0.978 ± 0.017; under setting [3], 0.872 ± 0.23; under setting [4], 0.978 ± 0.015; under setting [5], 0.994 ± 0.006; under setting [6], 0.9777 ± 0.0063.

Turning to `CCN(CC)CCNC(=O)c1ccc(N)cc1` [Procainamide HCl], the normalised cell viability under setting [1] is 0.9963 ± 0.0029; the normalised cell viability under setting [2] was determined as 1.03 ± 0.011; the normalised cell viability under setting [3] was 1.001 ± 0.0081; the normalised cell viability under setting [4] was found to be 1.03 ± 0.017; the normalised cell viability under setting [5] worked out at 0.9983 ± 0.0029; the normalised cell viability under setting [6] is 1.01.

As to `Cc1ccccc1N1CCN(S(=O)(=O)C[C@]23CC[C@H](C[C@@H]2NC(=O)[C@@H](N)CCS(C)(=O)=O)C3(C)C)CC1` [L-368,899 hydrochloride], the normalised cell viability was 0.99 ± 0.017 under setting [1]; 0.986 ± 0.024 under setting [2]; 0.998 ± 0.013 under setting [3]; 1.01 ± 0.023 under setting [4]; 0.9847 ± 0.0035 under setting [5]; 0.9993 ± 0.0095 under setting [6].

Turning to `O=C(O)c1ccnc(C(=O)O)c1` [2,4-Pyridinedicarboxylic Acid], the normalised cell viability is, setting by setting: under setting [1], 1 ± 0.022; under setting [2], 0.999 ± 0.045; under setting [3], 0.996 ± 0.021; under setting [4], 1.01 ± 0.024; under setting [5], 0.996 ± 0.015; under setting [6], 0.999 ± 0.015.

For `CCc1cc2c(cc1CC)CC(NC[C@H](O)c1ccc(O)c3[nH]c(=O)ccc13)C2` [Indacaterol Maleate], the normalised cell viability reads like this: under setting [1], 0.9913 ± 0.009; under setting [2], 0.982 ± 0.016; under setting [3], 0.986 ± 0.024; under setting [4], 0.956 ± 0.062; under setting [5], 1.002 ± 0.0068; under setting [6], 0.9953 ± 0.0045.

Regarding `c1cc(CN2CCCCC2)cc(OCCCNc2nc3ccccc3s2)c1`, the normalised cell viability was determined as 1.01 under setting [1]; 0.9913 ± 0.0076 under setting [2]; 0.897 ± 0.22 under setting [3]; 1.07 ± 0.029 under setting [4]; 1.017 ± 0.0058 under setting [5]; 0.674 ± 0.13 under setting [6].

In the case of `Cc1c(-c2ccc(O)cc2)n(Cc2ccc(OCCN3CCCCCC3)cc2)c2ccc(O)cc12` [Bazedoxifene HCl], the normalised cell viability turned out to be 0.9693 ± 0.0091 under setting [1]; 1.02 ± 0.026 under setting [2]; 0.997 ± 0.024 under setting [3]; 1.02 ± 0.011 under setting [4]; 0.9947 ± 0.0021 under setting [5]; 0.827 ± 0.023 under setting [6].

On to `OC[C@H]1O[C@@H](n2cnc3c(N[C@H]4CC5CCC4C5)ncnc32)[C@H](O)[C@@H]1O` (some centres not stated), for which the normalised cell viability under setting [1] is 1.01 ± 0.022; the normalised cell viability under setting [2] came to 1.013 ± 0.0058; the normalised cell viability under setting [3] was determined as 1.01 ± 0.015; the normalised cell viability under setting [4] was determined as 1.02 ± 0.015; the normalised cell viability under setting [5] amounted to 0.9913 ± 0.0075; the normalised cell viability under setting [6] came out at 0.995 ± 0.0061.

Regarding `Cc1ccc(-c2cc(C(F)(F)F)nn2-c2ccc(S(N)(=O)=O)cc2)cc1` [Celecoxib], the normalised cell viability worked out at 1.02 ± 0.011 under setting [1]; 1.04 ± 0.025 under setting [2]; 1.02 ± 0.01 under setting [3]; 1.04 ± 0.01 under setting [4]; 0.9907 ± 0.0095 under setting [5]; 1.01 ± 0.012 under setting [6].

For the origin of these results see the supplement of paper PMC8285479.
